Results are given in words; binding and its absence hold for the method and conditions named. Some binding calls cover weakened binding; strength is not graded here. For some of these results: Sequences can lack the tags named with a protein.
B1: SPTLC1, endogenous in A431 cells (enzyme, UniProt O15269 1-473)
chain: MATATEQWVLVEMVQALYEAPAYHLILEGILILWIIRLLFSKTYKLQERSDLTVKEKEELIEEWQPEPLVPPVPKDHPALNYNIVSGPPSHKTVVNGKECINFASFNFLGLLDNPRVKAAALASLKKYGVGTCGPRGFYGTFDVHLDLEDRLAKFMKTEEAIIYSYGFATIASAIPAYSKRGDIVFVDRAACFAIQKGLQASRSDIKLFKHNDMADLERLLKEQEIEDQKNPRKARVTRRFIVVEGLYMNTGTICPLPELVKLKYKYKARIFLEESLSFGVLGEHGRGVTEHYGINIDDIDLISANMENALASIGGFCCGRSFVIDHQRLSGQGYCFSASLPPLLAAAAIEALNIMEENPGIFAVLKEKCGQIHKALQGISGLKVVGESLSPAFHLQLEESTGSREQDVRLLQEIVDQCMNRSIALTQARYLEKEEKCLPPPSIRVVVTVEQTEEELERAASTIKEVAQAVLL
B2: SPTLC2, endogenous in mouse liver (enzyme, UniProt P97363 1-560)
chain: MRPEPGGCCCRRPMRANGCVKNGEVRNGYLRSSTATVAAAGQIHHVTENGGLYKRPFNEAFEETPMLVAVLTYVGYGVLTLFGYLRDFLRHWRIEKCHHATEREEQKDFVSLYQDFENFYTRNLYMRIRDNWNRPICSVPGAKVDIMERKSHDYNWSFKYTGNIIKGVINMGSYNYLGFARNTGSCQEAAAEVLKEYGAGVCSTRQEIGNLDKHEELEKLVARFLGVEAAMTYGMGFATNSMNIPALVGKGCLILSDELNHASLVLGARLSGATIRIFKHNNMQSLEKLLKDAIVYGQPRTRRPWKKILILVEGIYSMEGSIVRLPEVIALKKKYKAYLYLDEAHSIGALGPSGRGVVDYFGLDPEDVDVMMGTFTKSFGASGGYIGGKKELIDYLRTHSHSAVYATSMSPPVMEQIITSMKCIMGQDGTSLGKECIQQLAENTRYFRRRLKEMGFIIYGNEDSPVVPLMLYMPAKIGAFGREMLKRNIGVVVVGFPATPIIESRARFCLSAAHTKEILDTALKEIDEVGDLLQLKYSRHRLVPLLDRPFDETTYEETED

How the values were obtained:
[1] = biological target: T1, ER-SPTLC2^FLAG, constitutively expressed in A431 SPTLC2-KO cells (human) (UniProt O15269+O15270); assay: native gel or EMSA; blue native PAGE of heavy membrane fractions from A431 SPTLC2-KO cells expressing WT-, ER- or OM-SPTLC2^FLAG; immunoblotted with anti-SPTLC2 and anti-SPTLC1
T1 sequence: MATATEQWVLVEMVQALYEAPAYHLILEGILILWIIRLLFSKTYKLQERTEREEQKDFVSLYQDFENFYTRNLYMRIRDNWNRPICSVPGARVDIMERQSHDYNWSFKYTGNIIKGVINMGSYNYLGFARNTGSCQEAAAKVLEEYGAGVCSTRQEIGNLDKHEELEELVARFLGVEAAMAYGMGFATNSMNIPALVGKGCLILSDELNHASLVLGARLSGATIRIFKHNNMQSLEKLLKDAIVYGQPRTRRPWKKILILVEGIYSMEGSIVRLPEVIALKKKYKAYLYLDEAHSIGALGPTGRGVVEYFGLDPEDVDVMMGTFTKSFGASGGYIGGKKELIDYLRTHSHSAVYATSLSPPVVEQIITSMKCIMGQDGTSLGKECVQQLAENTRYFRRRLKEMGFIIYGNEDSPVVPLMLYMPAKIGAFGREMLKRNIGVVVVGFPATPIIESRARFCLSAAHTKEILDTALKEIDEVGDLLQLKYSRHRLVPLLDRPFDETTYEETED

[2] = biological target: T2, WT-SPTLC2^FLAG, constitutively expressed in A431 SPTLC2-KO cells (human) (UniProt O15270); assay: as above
T2 sequence: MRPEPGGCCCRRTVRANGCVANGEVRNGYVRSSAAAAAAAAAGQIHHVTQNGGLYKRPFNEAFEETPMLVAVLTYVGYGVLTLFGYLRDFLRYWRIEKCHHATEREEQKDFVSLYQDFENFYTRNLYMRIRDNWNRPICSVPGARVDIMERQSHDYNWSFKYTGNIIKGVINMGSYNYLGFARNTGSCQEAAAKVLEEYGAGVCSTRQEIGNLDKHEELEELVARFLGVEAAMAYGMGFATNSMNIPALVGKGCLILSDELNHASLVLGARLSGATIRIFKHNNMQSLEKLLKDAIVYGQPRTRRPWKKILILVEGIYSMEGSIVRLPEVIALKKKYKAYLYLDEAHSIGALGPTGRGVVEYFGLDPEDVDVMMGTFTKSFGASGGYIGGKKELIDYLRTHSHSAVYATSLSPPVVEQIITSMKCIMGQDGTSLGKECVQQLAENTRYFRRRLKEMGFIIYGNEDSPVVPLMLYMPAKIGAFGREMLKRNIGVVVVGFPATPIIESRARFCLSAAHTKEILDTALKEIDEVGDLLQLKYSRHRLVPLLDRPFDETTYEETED

[3] = biological target: T3, OM-SPTLC2^FLAG, constitutively expressed in A431 SPTLC2-KO cells (UniProt O15270); assay: as above
T3 sequence: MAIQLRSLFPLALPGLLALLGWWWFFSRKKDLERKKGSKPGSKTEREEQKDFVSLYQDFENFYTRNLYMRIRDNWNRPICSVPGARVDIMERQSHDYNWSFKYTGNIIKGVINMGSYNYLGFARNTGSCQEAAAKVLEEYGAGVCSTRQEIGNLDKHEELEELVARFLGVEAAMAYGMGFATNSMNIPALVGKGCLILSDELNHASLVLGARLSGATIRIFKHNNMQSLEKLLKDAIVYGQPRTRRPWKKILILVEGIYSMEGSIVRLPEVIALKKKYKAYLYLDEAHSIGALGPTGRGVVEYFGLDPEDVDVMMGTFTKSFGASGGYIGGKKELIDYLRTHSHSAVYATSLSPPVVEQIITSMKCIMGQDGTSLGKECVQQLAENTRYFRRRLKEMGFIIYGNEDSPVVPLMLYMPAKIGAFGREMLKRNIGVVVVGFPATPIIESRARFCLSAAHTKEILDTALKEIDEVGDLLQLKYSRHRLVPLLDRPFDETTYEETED

[4] = biological target: T4, SPTLC2, endogenous in mouse liver (mouse (endogenous in liver)) (UniProt P97363); assay: native gel or EMSA; blue native PAGE of gradient-purified mitochondria from mouse liver (MAMs stripped off); immunoblotted with anti-SPTLC1 and anti-SPTLC2
T4 sequence: B2 chain

| Binder | binding [1] | binding [2] | binding [3] | binding [4] |
| --- | --- | --- | --- | --- |
| B1 | binds | binds | binds |  |
| B2 |  |  |  | no binding |
